# The whole screen tested about 310,000 compounds, of which about 14,000 (4.5%) showed an effect of 50% or more. The effect is printed as a negative number. Some of the results follow.
# Target: human ether-à-go-go-related gene (hERG) potassium channel (human, UniProt Q12809)
# Assay: primary screen, population patch clamp on CHO cells stably expressing hERG
# 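Note: peak tail current of the secondary pulse compared with the same well before compound.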
# human ether-à-go-go-related gene (hERG) potassium channel, sequence (Q12809 whole entry, looked up): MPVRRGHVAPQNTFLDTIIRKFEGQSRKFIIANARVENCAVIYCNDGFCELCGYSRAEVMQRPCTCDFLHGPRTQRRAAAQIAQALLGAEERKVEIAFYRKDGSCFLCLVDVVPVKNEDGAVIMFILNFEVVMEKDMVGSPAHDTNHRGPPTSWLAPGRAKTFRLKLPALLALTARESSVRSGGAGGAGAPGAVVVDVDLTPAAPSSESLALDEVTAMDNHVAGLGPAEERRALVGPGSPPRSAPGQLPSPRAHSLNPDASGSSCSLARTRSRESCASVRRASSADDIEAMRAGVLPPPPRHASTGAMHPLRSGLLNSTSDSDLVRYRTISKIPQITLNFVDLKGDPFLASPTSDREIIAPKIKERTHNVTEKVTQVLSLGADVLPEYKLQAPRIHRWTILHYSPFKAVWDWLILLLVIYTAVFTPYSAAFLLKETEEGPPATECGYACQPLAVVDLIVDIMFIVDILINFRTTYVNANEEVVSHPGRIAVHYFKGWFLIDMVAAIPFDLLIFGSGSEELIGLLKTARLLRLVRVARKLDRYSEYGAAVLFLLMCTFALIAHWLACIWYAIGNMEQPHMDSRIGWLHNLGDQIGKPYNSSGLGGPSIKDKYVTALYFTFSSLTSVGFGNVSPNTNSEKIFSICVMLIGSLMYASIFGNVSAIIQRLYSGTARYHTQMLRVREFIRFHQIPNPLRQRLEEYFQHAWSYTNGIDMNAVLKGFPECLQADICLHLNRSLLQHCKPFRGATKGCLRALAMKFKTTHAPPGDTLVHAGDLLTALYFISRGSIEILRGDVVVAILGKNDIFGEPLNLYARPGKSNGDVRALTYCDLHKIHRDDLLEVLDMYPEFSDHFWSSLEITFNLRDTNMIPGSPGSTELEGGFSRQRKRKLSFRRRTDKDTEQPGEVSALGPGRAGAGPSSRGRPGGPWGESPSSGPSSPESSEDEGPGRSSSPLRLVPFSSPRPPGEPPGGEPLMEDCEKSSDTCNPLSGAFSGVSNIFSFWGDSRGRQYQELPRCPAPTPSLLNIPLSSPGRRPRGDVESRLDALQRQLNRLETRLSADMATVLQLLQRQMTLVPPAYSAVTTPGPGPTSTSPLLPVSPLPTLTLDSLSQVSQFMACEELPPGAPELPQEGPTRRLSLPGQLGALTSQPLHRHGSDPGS
row,Compound,"hERG current change (%, negative = inhibition) at 10uM [%]"
1,O=[N+]([O-])c1cccc(Cl)c1NCCNS(=O)(=O)c1ccccc1,-15.2
2,C/C(=N/NS(=O)(=O)c1cccc([N+](=O)[O-])c1)c1ccncc1,16.3
3,CCS(=O)(=O)c1nc(S(=O)(=O)c2ccc(C)cc2)c(N2CC(C)OC(C)C2)s1 (centres unmarked),-37.6
4,CCN(CC(O)c1cccc(O)c1)C(=O)C12CC3CC(CC(C3)C1)C2.Cl (centres unmarked),-23.6
5,Cc1cc2oc(=O)cc(CN3CCOCC3)c2cc1Cl,12.9
6,COc1ccc(S(=O)(=O)N(C)c2ccc(C(=O)N3CCCCC3)cc2)cc1OC,-8.57
7,CCC(=O)Nc1ccc2nc(SCC(=O)N3CCOCC3)sc2c1,-17.2
8,COc1cc(C(c2c(C)[nH][nH]c2=O)c2c(C)[nH][nH]c2=O)ccc1OS(=O)(=O)c1ccccc1,0.583
9,Cc1onc(-c2ccccc2)c1C(=O)Nc1nnc(CC(C)C)s1,-15.4
10,Cc1nc(NCCc2ccccc2)c2nnn(Cc3ccccc3Cl)c2n1,25.9
11,CCOC(=O)N1CCN(c2ncnc3scc(-c4ccccc4)c23)CC1,-32.6
12,Fc1cc(Br)ccc1NC(=S)Nc1ccccc1,14.1
13,COC(=O)C(C(=O)OC)N1C(=O)CCC1=O,-7.02
14,O=C(O)/C=C/C(=O)N(CC1CCCO1)C1CC(=O)N(c2c(Cl)cccc2Cl)C1=O (centres unmarked),19.2
15,CCC(Oc1ccccc1)C(=O)Nc1cc(Cl)ccc1-n1cncn1 (centres unmarked),-14.1
16,COC(=O)c1c(C)nc(C)c(C(=O)OC)c1-c1cccs1,1.61
17,O=C(O)c1ccc(Oc2cccc([N+](=O)[O-])c2)cc1C(=O)O,13.2
18,CC(NC(=O)c1ccccc1Cl)C1CC2CCC1C2 (centres unmarked),20.8
19,CC(=O)O[C@H]1C(=O)[C@@]2(C)[C@H]([C@H](OC(=O)c3ccccc3)[C@]3(O)C[C@H](OC(=O)[C@H](O)C(NC(=O)c4ccccc4)c4ccccc4)C(C)=C1C3(C)C)[C@]1(OC(C)=O)CO[C@@H]1C[C@@H]2O (some centres unmarked),17.1
20,COc1ccc(C)cc1-n1c(SCC(=O)Nc2cccc(C(=O)O)c2)nc2ccccc2c1=O,12
21,CNC(=O)c1ccc(NC(=O)c2cccc(C(F)(F)F)c2)cc1,10.1

row,Compound,"hERG current change (%, negative = inhibition) at 10uM [%]"
1,COc1ccc2cc(C(=O)NCc3ccccc3CN3CCCC3)ccc2c1,-68.2
2,COc1cccc(OC)c1C(=O)NNS(=O)(=O)c1ccc2ccccc2c1,-5.2
3,COc1ccccc1-c1ccc(SCC(=O)NC2CCCC2)nn1,-24.5
4,CCSc1nc(N)c(C#N)c(-c2ccco2)c1C#N,1.16
5,CCSc1nnc(Cn2c(=O)sc3ccccc32)n1-c1ccccc1C,-2.71
6,COc1ccc(CCNC(=O)COc2ccc3c(c2)OCO3)cc1,-6.6
7,Cc1cc2cc(C)c(NCCNC(=O)c3cccs3)nc2cc1C,-3.57
8,CC(C)CNC(=O)c1cc(S(=O)(=O)N2CCOCC2)ccc1N1CCCC1,6.7
9,CN1CCN(S(=O)(=O)c2cc([N+](=O)[O-])ccc2N/N=C/c2ccc(Cl)cc2)CC1,-1.71
10,CCCn1c(N)c(C(=O)CN(C)CC(=O)Nc2ccc(F)cc2)c(=O)[nH]c1=O,-70.6
11,Cc1noc2ncnc(Sc3ccccc3Cl)c12,3.95
12,Cc1cc(C)n(CC(O)COc2c(C)cccc2C)n1 (centres unmarked),-1.28
13,CC1(NC(=O)Nc2cc([N+](=O)[O-])ccc2O)CCS(=O)(=O)C1 (centres unmarked),26.3
14,COCCCNC(=O)CCSc1ccc(C)cc1,-0.854
15,COc1ccc(-c2cc(C(=O)Oc3ccc([N+](=O)[O-])cc3)c3ccccc3n2)cc1,7.78
16,CC1C(=O)N2CCCc3cc(NC(=O)C(=O)NCCc4c[nH]c5ccccc45)cc1c32 (centres unmarked),-17.7
17,COc1cc(C(=O)Nc2scc(-c3ccccc3)c2C(=O)O)cc(OC)c1OC,-11.5
18,Cc1ccc(C)c(Cn2nnc3c(=O)[nH]c(C4CCCN(C(=O)C5CCC5)C4)nc32)c1 (centres unmarked),-32.4
19,Cc1cc(-c2ccccc2)n2ncnc2n1,12.5
20,CCc1ccccc1NCC(=O)Nc1ccc(Cl)c(C(F)(F)F)c1,9.3
